Test results from the supplement of paper PMC11417369.
The list shows a part of the results.

System: PfHDP1 homeodomain (GST-tagged)
Test: gcPBM binding intensity (ln(normalized median fluorescence intensity)); higher = stronger DNA binding
Method in brief: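 Binding of GST-tagged P. falciparum DNA-binding domains, expressed in E. coli and used at about 25 μg on average, was carried out for 1 h in 1× PBS containing 1% milk, 0.2 mg/ml BSA, 0.5% salmon testes DNA and 0.03% Triton X-100. The target was an Agilent 4 × 180k array of primer-extended double-stranded 36-bp intergenic genomic probes plus negative controls, read with Alexa488 anti-GST antibody at 488 nm. Binding intensity is the highest Masliner-normalised natural-log median intensity across replicate spots of either probe orientation.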

Sequence	gcPBM binding intensity (ln)
ATATTTATTTTAATTTTTCTATATAAACTATTATGA [CACACA_negctrl_site739]	6.19
AGGAAGGAAATAAATCAACACACATATATTATATAT [CACACA_site8678]	6.53
TATATATATTATATATGTACATATTGTATATTTTTG [XGTACX_site4564]	6.95
TTACAAAACACTTATACACACATATATATATATATA [CACACA_site2716]	9.46
TAATATATTAAAAATAGTACATAAGAAAAATAAGTA [XGTACX_site7957]	6.81
CAAAATTATCAGAATCGTACATTTTTAACATATAAT [XGTACX_site7909]	6.22
AAAACTATATTAATGTGTACACATCAAAATATTAAT [XGTACX_site6767]	6.86
ATATATTTTTATGTAGTGCATTTAAATAATAAATGC	8.54
ATTTTTTCCAATTCTTTACCTTAGAAAGGTGTTCAA [CACACA_negctrl_site1401]	6.25
ATTCTAAATAAATGTACACACAAAAATAAATGTATA [CACACA_site1732]	6.5
ATATATATATAATGAAGTACGAAAAAATAAGAAATG [XGTACX_site4001]	8.47
ACCTCATAATATTTAACACACAAAATTATATGTATG [CACACA_site1704]	6.73
TATCCTTATATTTGCACACACACACCCTAAAATGAA [CACACA_site1029]	10.6
TTTATATTTAAAAGGATGCACTACAAATTCTAAATA	7.36
TTATATTAAACAAACACACACATATAAATATAAATA [CACACA_site7174]	6.9
AAAACAAACAGACACACACACATATTTATATTTATA [CACACA_site7681]	6.68
AAGACAAATATGAAGAGTACATTTATATAAAAATTA [XGTACX_site5142]	6.29
CTACAATATCTTTAAAGTACTTTTATATAACTACCA [XGTACX_site6119]	6.66
GTAAATAAATAAATAAATAAATATATATATATATAT [CACACA_negctrl_site1737]	9.25
AATAAAAAAAAATTCACACAAAGTTAGATTAACTAT [CACACA_site4224]	5.97
AATGATCAGATATACACACACACAAAAAAAAAAAAA [CACACA_site7806]	6.36
AATTCACATGTGAACTAAAAGAATATTATATATATA [CACACA_negctrl_site1632]	7.5
AAATATATATATAGTACATGCAGTAGATAATTTAAT [TGCATGCA_site299]	6.86

Sequence	gcPBM binding intensity (ln)
ATTAGGTATTTTTTTTGTACATATTATATAATGTGA [XGTACX_site3815]	6.69
CACAAAAATTTATACACACACATATAAAATATAGAT [CACACA_site6218]	6.54
AGTTATTACACACAAACATGCATTAATATCAAAAAA [TGCATGCA_site63]	6.79
TTCACTATACAAAGGTGTACTTAATTTTGTCCCATT [XGTACX_site7483]	6.15
GTGTTGGGAAAAGGCATGCACTTTTTTTTTTTTTTT	7.04
ATGTATATGCAAACATGTACATATATAAACATATAT [XGTACX_site4159]	6.64
TTTTATTTTATTCAATTTTTACTTTTATAAAAATAT [GTGCAC_negctrl_site578]	6.48
AATATTAGGTTATGTAGTACATAACAATAATTATAC [XGTACX_site5733]	6.61
AAGGAATATGTATATACACACAGGTACATATTTATA [CACACA_site6344]	6.78
ATAAAGAATATAAATACACACTTAAATATATATTAT [CACACA_site6071]	6.37
TAAAATATACAAATTTGTACATATATATGTATGTAT [XGTACX_site1127]	7.14
TGCAGGTGTTATTCACGTACGCATTTGATTAAAAAA [XGTACX_site7743]	6.25
TAATTTTATATAAATTGTACAAAAATATTTTATTAA [XGTACX_site7166]	6.32
ATTAGAAAATAAAATAATAAATAAAATAAAAAAAAA [CACACA_negctrl_site409]	6.35
ATAAAAACATAAAAATGTACATATATATATATATAT [XGTACX_site7165]	9.3
TTTTTTTTTTTTGGTAGTACATAAATATTTTATGGA [XGTACX_site6851]	6.25
AGTGGGATTTTTAATTGTACATAAATAATATCATAA [XGTACX_site4163]	6.56
CATGTTATATATATATGTACTAAAAATATAATATAA [XGTACX_site1978]	6.32
AATAAGAATTAAAAATGTACAAAAAAATGTATTTAT [XGTACX_site8005]	6.44
AAGTATAAAATATTTTGTACTTAAAAAATTATATGG [XGTACX_site2180]	6.46
TATATATATTTTAACACACACATATATATATTTATA [CACACA_site2765]	6.71
AATATAAAATAGAAAAATGAAAAAAAAAAAAAGGGT [CACACA_negctrl_site1263]	6.91
TGTTTGATGGTACACGTACACACCTTGCAAATATTT [CACACA_site888]	7.12

Sequence	gcPBM binding intensity (ln)
CAATAAATAATAAATACATGCAAGTATGAAGATATA [TGCATGCA_site859]	6.82
ATATAAAATAAAAAAAAAAAAAAAAAAAAAAAAAAA [CACACA_negctrl_site1234]	6.03
TAATTAAAAAATGAATAAATGAATAAATAAATAAAT [CACACA_negctrl_site838]	6.32
TTTTTGTATCCTTTTAATATTAAATAAAAGGAATGT [CACACA_negctrl_site1468]	6.46
TTAATGTTTGAAAGAGTGCACATAACAAAAAAAAAA [GTGCAC_site9623]	9.04
TATGAATATTGCATGTGTACCTATTATCCTTTTAAA [XGTACX_site4311]	6.95
ATAATTATTTTCCCGTGTACTTATTTTTTTCAAGTA [XGTACX_site8843]	7.03
AACAAATTTTTTATTAAACACACAAACATATATATA [CACACA_site8588]	6.84
GCTCATTGAAATTATACACACCAAATATATAAATAT [CACACA_site5385]	6.86
TGTGAATATATCTTTAAAAAGGATAAATAATAATTT [CACACA_negctrl_site507]	6.11
AAAAAAAAAAAGATAAATACAAGTTACACAAAAAAA [GTGCAC_negctrl_site664]	6.38
ACGTTGCGACGCAAGGTGCTTATTTTCTTATAAATA	6.11
AGGGAATATTTTTATGCATGTGCTTACACATTACAA [TGCATGCA_site830]	6.83
AAAAAAAACGGACACACACACATACAAAATATATAT [CACACA_site4910]	6.88
AAATATAAACTCAGCACACAAACATATATATGTCAT [CACACA_site4004]	6.67
TTCTAATATTTACATAATATATAGAAATATAAAGGT [XGTACX_negctrl_site504]	6.63
GTAGACATTATAATGGTGCAAAAAAATTAACAAAAA [GTGCAC_site9891]	10.6
ATGGTATAAAAAAATACACACTTATATATATTCTTA [CACACA_site4427]	6.25
TTTTTTTTTTTTTCTCGTACAAAATAATACCTTTTT [XGTACX_site3867]	6.56
GCCATTGTACCATCCACACACATATATATCTGTATA [CACACA_site5490]	7.4
AAAAAAGAAGAGCACACACACATATATAAATATAAA [CACACA_site631]	6.77
TGGTATTAAGGAGAGGGTACAAAAAAAAAAAAAAAA [XGTACX_site1668]	6.64
TAAAATTTTGTTTGTTGTACTTATTTTCGTGTCAAC [XGTACX_site8277]	6.77

Sequence	gcPBM binding intensity (ln)
AAAGATGAATTTTTTACACACACCATTTTATAATAT [CACACA_site3676]	6.68
AAAAAAAAAAAAAAAAAAAAATATATATATATATAT [GTGCAC_negctrl_site426]	9.44
AAAAGTATAATAAATTGTACTAACAAATATTTATGT [XGTACX_site7721]	6.21
TACTTATCGTTAAATTGTACTAAAAAATATTTTTCT [XGTACX_site4665]	6.5
AATGTAAAACCTCCTACACACACCAATTAACTATTC [CACACA_site2112]	6.77
GTAATATATTTTTATGGTACACGAACTAGCCAAAAA [XGTACX_site6307]	6.37
CCGCATTTTACAGACACACACAATTTATATTACGGT [CACACA_site6974]	6.5
AGTAATAACTATATATGTACATATATATATTATTAG [XGTACX_site1113]	6.21
TAATATATTTATAAGTGTACACATTATATAAATCCC [XGTACX_site8875]	6.91
TTTTTTTTTTTAAATACATGCATGTCCTATTTAAAT [TGCATGCA_site494]	6.73
TTTTTTTGATAAAAGGTGCTACAAGATGAATACATA	6.48
GTTGTATAAAATAATACATGCATGTCCTACATATAT [TGCATGCA_site162]	7.05
ATAAATAAAAAAAAAAAAAAAAAAAAAAAAAAAATA [CACACA_negctrl_site1064]	5.96
AAGTATGCGTTATATACACACATACATTTATATATC [CACACA_site6207]	6.75
AGAGAGAAAGCTATAACATGCAACAATTTTTAGAAA [TGCATGCA_site95]	6.86
TCAGAGTGAAGTTATACACACATGGTTTTTTTTTTT [CACACA_site2116]	6.36
AGGAGGATATTACACAGTACCCAGTAACTCTACGGA [XGTACX_site1998]	6.36
CTCTTATACATATTCCTGCACTTATTTTTAAAAACA [GTGCAC_site9620]	8.08
ATCATATTTTTATGTGTGCACTTTTTTTTTTTTTTT [GTGCAC_site9555]	8.73
AAAAATGGTGTTAACACACACATATAAATAAATATA [CACACA_site6412]	6.27
